We go through 45 compounds from PubChem BioAssay AID1963576 (National Center for Advancing Translational Sciences (NCATS), 2024).

The whole screen tested about 46,000 compounds, of which about 60 (0.1%) were called active. About 3% were inconclusive and are not listed. The call rests on the fitted dose curve; in most records, active means well fitted inhibition curve with a large enough effect; inconclusive means small, poorly fitted or top-dose-only effect; inactive means no such curve, though single readings can be large or run the other way. The list shows a part of the results. Starred links: 1 amine or outer side, 2 acyl side, 3 side chain; linkers in the order of their positions; H or OH if unused. Positions of bridges follow the written chain, without caps; N, C: chain ends. Non-standard residues stand in square brackets, D forms with d. Residues, ends and D or L forms follow the SMILES beside them. Chains are numbered I, II in the order given. Actinocin(9to1) = Cc1c2oc3c(C)ccc(C(=O)[*:1])c3nc-2c(C(=O)[*:2])c(N)c1=O; NMeV = CN[CH](C(=O)O)C(C)C; Sar = CNCC(=O)O

This assay is described as follows: Primary qHTS assay for Inhibitors of ovarian cancer metastasis using an organotypic tumor microenvironment (TME) model. Further: nearly all actives have a fitted effect of over 65% in size.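 On activity change, negative = inhibition: plate controls were DMSO wells for no effect and tomatine positive control wells for full effect.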 The settings on record: SKOV3ip1-GFP adhesion/invasion on 3D omental model, fluorescence; series mostly up to 45.8 µM; activity change, negative = inhibition: at the top concentration. An outline of the steps:
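Adhesion/invasion was scored as fixed GFP-labeled SKOV3ip1 cell counts (488/509 nm), normalized to DMSO and tomatine controls. Cancer cells in serum-free medium, with four compound doses (0.36-46 umol/L), sat 2 hr at RT then 16 hr at 37 C on a 48 hr fibroblast/mesothelial/ECM culture.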
As to `O=C(NCCSc1c(-c2ccccc2)[nH]c2ccccc12)c1ccc(S(=O)(=O)N2CCOCC2)cc1`, the “activity change, negative = inhibition” value is inactive: -22.2%.
For the compound `Cc1ccc(CNC(=O)C2CCN(S(=O)(=O)c3ccc4c(c3)CCCN4C(=O)C3CCC3)CC2)cc1`, the “activity change, negative = inhibition” value is inactive: 4.83%.
`CCOc1ccc2c(c1)c(=O)c(S(=O)(=O)c1ccccc1)cn2CC(=O)Nc1ccccc1OC`: the “activity change, negative = inhibition” value was inactive: -8.56%.
As to `CCCCNC(=O)c1cnn2c(C)c(Cc3c(F)cccc3Cl)c(C)nc12`, the “activity change, negative = inhibition” value is inactive: -8.74%.
Take `COc1cccc(NC(=O)c2cc3c(=O)n(C)c4ccccc4c3n2C)c1`: the result was inactive.
For `Cc1ccccc1NC(=O)CN1C(=O)C(C)(C)c2ccccc21`, the “activity change, negative = inhibition” value was inactive: 11.9%.
Same read-out and setting: with `Cc1c2oc3c(C)ccc(C(=O)NC4C(=O)NC(C(C)C)C(=O)N5CCCC5C(=O)N(C)CC(=O)N(C)C(C(C)C)C(=O)OC4C)c3nc-2c(C(=O)NC2C(=O)NC(C(C)C)C(=O)N3CCCC3C(=O)N(C)CC(=O)N(C)C(C(C)C)C(=O)OC2C)c(N)c1=O` (stereo not given) (I: TVP[Sar][NMeV] / II: TVP[Sar][NMeV]; ester I:1-I:C, II:1-II:C; linker I:N-II:N via Actinocin(9to1); configuration not given here) the figure was inactive: -13.2%.
Take `CCOc1ccc(S(=O)(=O)N(CC(=O)NCCc2ccc(OC)c(OC)c2)c2ccccc2)cc1`: the call was inactive.
With `COc1ccc(NC(=O)CN2C(=O)CSc3ccc(S(=O)(=O)N4CCCC4)cc32)cc1OC`, the “activity change, negative = inhibition” value is inactive: -2.45%.
Consider `COc1ccc(OC)c(CCNC(=O)c2c(C)oc3ncn(C)c(=O)c23)c1`, for which the outcome was inactive.
For `Cc1cccc(C)c1NC(=O)Cn1c(=O)n(CCC(=O)NCc2ccccc2Cl)c(=O)c2sccc21`, the compound was called inactive.
Consider `O=C1c2c(O)cccc2[C@@H]([C@@H]2O[C@H](CO)[C@@H](O)[C@H](O)[C@H]2O)c2cc(CO)cc(O)c21`, for which the “activity change, negative = inhibition” value was inactive: -12.4%.
On to `COc1ccc(Cc2nccc3cc(OC)c(OC)cc23)cc1OC`, for which the “activity change, negative = inhibition” value was inactive: 0.992%.
Turning to `CCCC(=O)NCC1(N(C)C)CCCCC1`, the “activity change, negative = inhibition” value is inactive: -13.5%.
`N#Cc1ccc(C(=O)Nc2cc3nn(-c4ccccc4)nc3cc2Cl)c(F)c1`: the compound was called inactive.
Consider `Cc1ccc(Cl)cc1NC(=O)c1cnc(N2CCCCC2)c2ccccc12`, for which the “activity change, negative = inhibition” value was inactive: -5.36%.
For the compound `Cc1cccc(C(=O)Nc2c(-c3ccccc3)nc3cc(C)ccn23)c1`, the “activity change, negative = inhibition” value was inactive: -1.23%.
As to `CC(C)OCCCn1c(=O)c2ccccc2n2c(-c3ccc(F)cc3)nnc12`, the “activity change, negative = inhibition” value is inactive: -7.31%.
Consider `Cn1c(=NC(=O)c2ccc(S(=O)(=O)N3CCCc4ccccc43)cc2)sc2cc(F)ccc21`, for which the “activity change, negative = inhibition” value was inactive: -1.28%.
For `COc1ccc(S(=O)(=O)N(CC(=O)Nc2ccccc2Br)Cc2ccccc2)cc1`, the “activity change, negative = inhibition” value is inactive: 1.39%.
Take `COc1ccccc1NC(=O)C(=O)NCC(c1ccc2c(c1)OCO2)N1CCN(C)CC1` (stereo not given): the “activity change, negative = inhibition” value was inactive: -0.715%.
Still for that read-out and setting: next, `CCOc1cc2sc(N3CCC(C(=O)Nc4ccc(C)cc4C)CC3)nc2cc1Br`: inactive: -4.79%.
For `COc1ccc(-c2nc3scc(CCNS(=O)(=O)c4ccc(C)cc4)n3n2)cc1`, the outcome was inactive.
In the case of `COc1ccc(NC(=O)C(=O)NCCc2csc(-c3ccc(Cl)cc3)n2)cc1OC`, the “activity change, negative = inhibition” value was inactive: -1.07%.
Turning to `CN(C)c1ccc(C(CNC(=O)c2ccccc2)N2CCc3ccccc32)cc1` (stereo not given), the “activity change, negative = inhibition” value was inactive: 3.03%.
In the case of `CCc1ccc(CN(Cc2ccco2)c2cnc(S(C)(=O)=O)nc2C(=O)Nc2cccc(C)c2)cc1`, the “activity change, negative = inhibition” value was inactive: -3.03%.
Regarding `CCOC(=O)COc1ccc([N+](=O)[O-])cc1-c1ccnc2cc(-c3ccc(Cl)cc3)nn12`, the “activity change, negative = inhibition” value is inactive: 33.7%.
Consider `COC(=O)c1ccc(NC(=O)CSc2nc(=O)[nH]c3c2CCCC3)cc1`, for which the call was inactive.
With `Cc1ccc(SCCNC(=O)CN(c2ccccc2)S(=O)(=O)N(C)C)cc1`, the “activity change, negative = inhibition” value is inactive: -1.68%.
Regarding `COCCCNC(=O)c1oc2c(c1C)-c1nn(Cc3ccccc3Cl)cc1CC2`, the “activity change, negative = inhibition” value is inactive: -6.81%.
In the case of `CNC(=O)C1CCC(Cn2c(=O)c3sccc3n(CC(=O)NCc3ccccc3)c2=O)CC1` (stereo not given), the “activity change, negative = inhibition” value is inactive: 19.4%.
Regarding `Cc1ccccc1C(=O)Nc1sc2c(c1C(=O)NCc1ccco1)CCC(C(C)(C)C)C2` (stereo not given), the “activity change, negative = inhibition” value is inactive: 2.2%.
In the case of `COc1ccccc1CNc1nc(-c2ccco2)nn1S(=O)(=O)c1ccc2ccccc2c1`, the compound was classed as inactive.
`CCC1=Nc2cc(C(=O)NCCCOC)ccc2Sc2ccc(Br)cc21`: the call was inactive.
As to `Cc1cccc(-c2noc(-c3ccccc3OCC(=O)Nc3ccc([N+](=O)[O-])cc3)n2)c1`, the “activity change, negative = inhibition” value was inactive: -0.707%.
Turning to `CC(C)CC(=O)Nc1cccc(-c2nc3ccccc3[nH]2)c1`, the “activity change, negative = inhibition” value was inactive: 2.72%.
In the case of `CCc1cnc2c(c1SCC(=O)c1ccccc1)c(=O)n(C)c(=O)n2C`, the “activity change, negative = inhibition” value was inactive: 9.27%.
Regarding `CCN1CCc2nc3sc(C(=O)Nc4cccc(Cl)c4C)c(N)c3cc2C1`, the “activity change, negative = inhibition” value was inactive: -5.53%.
Consider `CC1CCC(C(=O)NC(C(=O)OCC(=O)c2ccccc2)C(C)C)CC1` (stereo not given), for which the “activity change, negative = inhibition” value was inactive: -0.707%.
Take `CCC(=O)N1CCc2cc(Br)cc(S(=O)(=O)N3CCCC(C(=O)Nc4ccc(C(C)C)cc4)C3)c21` (stereo not given): the “activity change, negative = inhibition” value is inactive: 52.3%.
Take `CCOc1cc(C(=O)OCc2cc(=O)n3nc(CC)sc3n2)cc(OCC)c1OCC`: the compound was called inactive.
On the same count and under the same terms, with `COc1ccc(OCc2nc3ccccc3n2Cc2ccccc2Cl)cc1` the entry was “inactive”.
As to `COC(=O)c1ccccc1NC(=O)c1c(C)oc2ncn(C)c(=O)c12`, the “activity change, negative = inhibition” value is inactive: -7.64%.
Turning to `CCCCC(=O)N(c1ccc2oc(C)c(C(C)=O)c2c1)S(=O)(=O)c1ccc(F)cc1C`, the “activity change, negative = inhibition” value was inactive: -8.14%.
In the case of `CCOc1sc2nc(C)n(CC(=O)Nc3cccc(C)c3)c(=O)c2c1C`, the call was inactive.
